{
  "source": "PubChem BioAssay AID720542",
  "about": "(National Center for Advancing Translational Sciences (NCATS), 2013)",
  "note": "The whole screen tested about 360,000 compounds, of which about 740 (0.21%) were called active. The shares of active, inactive and inconclusive entries below differ from those in the screen. The call rests on the fitted dose curve; in most records, active means well fitted inhibition curve with a large enough effect; inconclusive means small, poorly fitted or top-dose-only effect; inactive means no such curve, though single readings can be large or run the other way. No potency is given beside an inconclusive call; the fits are too rough. Potency means the concentration at half of the fitted maximal effect; tags describe the fitted curve by direction and shape.",
  "data": [
    {"test_system": "Plasmodium falciparum AMA1 (3D7) - RON2 peptide interaction", "assay": "qHTS for Inhibitors of AMA1-RON; Towards Development of Antimalarial Drug Lead: Primary Screen; further: nearly all actives have a fitted effect of over 45% in size;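 on activity change, negative = inhibition: 0% = vehicle wells and -100% = peptide control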", "settings": "AlphaScreen AMA1-biotinylated RON2 peptide binding; activity change, negative = inhibition: at 58.2 µM (top of the series) unless noted", "summary_of_the_method": "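AMA1 (3D7) with his tag at 25 nM final met compounds first, then biotinylated RON2 peptide at 25 nM; detection used donor plus acceptor beads, 10 µg/mL apiece, read by AlphaScreen after 30 min at room temperature.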", "values": [
      {"smiles": "COc1ccc(S(=O)(=O)N(C)C)cc1NCC(=O)Nc1cccc(C#N)c1", "activity change, negative = inhibition": "inactive: -9.84%"},
      {"smiles": "Cc1nnc(SCc2cc(=O)n3[nH]cnc3n2)s1", "activity change, negative = inhibition": "inconclusive: -1.41% [inhibitor]"},
      {"smiles": "COc1ccccc1OCC(=O)NCCSCc1ccccc1Cl", "activity change, negative = inhibition": "inactive: 1.37%"},
      {"smiles": "COc1ccc(C(=O)c2oc3ccccc3c2N)cc1", "activity change, negative = inhibition": "inactive: 37.3%"},
      {"smiles": "Cn1nnnc1SCC(=O)Nc1ccccc1Cl", "activity change, negative = inhibition": "inconclusive: -20.4% [inhibitor]"},
      {"smiles": "Cc1ccc(N=C2NC(=O)/C(=C/c3cccn3C)S2)cc1", "Potency": "inconclusive [inhibitor, partial curve]"},
      {"smiles": "O=C(O)/C=C\\C(=O)Nc1ccc(N2CCN(c3cccc(Cl)c3)CC2)cc1", "Potency": "inconclusive [inhibitor, single point]"},
      {"smiles": "CCc1ccccc1N1C(=O)c2cccc3c(N4CCOCC4)c([N+](=O)[O-])cc(c23)C1=O", "Potency": "inconclusive [inhibitor, partial curve]"},
      {"smiles": "C/C=C/C(=O)OCC(=O)Nc1nc2ccc(C)cc2s1", "activity change, negative = inhibition": "inactive: 2.36%"},
      {"smiles": "CC(=O)N1CCN(C(=O)COC(=O)/C=C/c2ccccc2[N+](=O)[O-])CC1", "activity change, negative = inhibition": "inactive: -6.87%"},
      {"smiles": "CCCNc1c(F)c(F)c2c(C)c3ccccc3nc2c1F", "Potency": "inconclusive [inhibitor, single point]"},
      {"smiles": "Cc1ccc(C)c(S(=O)(=O)Nc2ccc(O)c3ccccc23)c1", "Potency": "inconclusive [inhibitor, partial curve]"},
      {"smiles": "COc1ccc(C(=O)COc2ccc3c(C)cc(=O)oc3c2)cc1", "activity change, negative = inhibition": "inactive: -7.33%"},
      {"smiles": "CCOc1ccc(NC(=O)CC2C(=O)N(CC)C(=S)N2CCNC(C)=O)cc1", "note": "(centres undefined)", "Potency": "inconclusive [inhibitor, partial curve, poor fit]"},
      {"smiles": "Clc1ccc2nc(CN3CCCc4ccccc43)cn2c1", "Potency": "inconclusive [inhibitor, single point]"},
      {"smiles": "Cc1cc(C)nc(SCC(=O)NC2CCCC2)n1", "activity change, negative = inhibition": "inactive: 1.27%"},
      {"smiles": "Cc1ccc(C2C3=C(CC(C)(C)CC3=O)N=C3c4ccccc4C(=O)C32)cc1", "note": "(centres undefined)", "Potency": "inconclusive [inhibitor, single point]"},
      {"smiles": "Cc1cc(C)c(C)c(N=Nc2nc3ccccc3n2C)c1C", "Potency": "active: 11.2 µM"},
      {"smiles": "O=[N+]([O-])c1ccc(O)c(Nc2c([N+](=O)[O-])ccc3nonc23)c1", "Potency": "inconclusive [inhibitor, partial curve]"},
      {"smiles": "COc1ccc(CNCCc2ccc(Cl)cc2)c(OC)c1OC", "Potency": "inconclusive [inhibitor, single point]"},
      {"smiles": "Cc1ccc(O)c(C(=O)/C=C/c2ccc3c(c2)OCCCO3)c1", "Potency": "inconclusive [inhibitor, single point]"},
      {"smiles": "Cc1cc(C)c(C(=O)COC(=O)CCn2c(C)csc2=O)cc1C", "Potency": "inconclusive [inhibitor, single point]"},
      {"smiles": "Clc1ccc(OCc2nnc(-c3ccccc3Br)o2)cc1", "activity change, negative = inhibition": "inactive: 23.5%"},
      {"smiles": "CC(=O)c1ccc(NC(=O)CN(C)CC(=O)Nc2cccc(F)c2)cc1", "activity change, negative = inhibition": "inactive: 22.1%"},
      {"smiles": "Cn1cccc1/C=C(/C#N)c1ccc(F)cc1", "Potency": "inconclusive [inhibitor, single point]"},
      {"smiles": "CC1=CC(C)(C)Nc2ccc(OC(=O)C(Cc3ccccc3)N3C(=O)C4CCCCC4C3=O)cc21", "note": "(centres undefined)", "Potency": "inconclusive [inhibitor, single point]"},
      {"smiles": "COc1ccc2sc(N(CCCN(C)C)C(=O)c3ccc(S(=O)(=O)N(C)Cc4ccccc4)cc3)nc2c1", "Potency": "inconclusive [inhibitor, single point]"},
      {"smiles": "CCOc1cc(/C=N/NC(=O)C2CCCC2)ccc1O", "activity change, negative = inhibition": "inactive: 14.3%"},
      {"smiles": "CCc1ccc(S(=O)(=O)Nc2cc(SCC(=O)O)c(O)c3ccccc23)cc1", "Potency": "inconclusive [inhibitor, single point]"},
      {"smiles": "CCN(CC)CCOC(=O)c1ccc(N/C=C(/C#N)c2nc(-c3ccc(OC)cc3)cs2)cc1", "Potency": "inconclusive [inhibitor, full curve]"},
      {"smiles": "COc1cc(SC)ccc1C(=O)NCCc1c[nH]c2ccccc12", "Potency": "inconclusive [inhibitor, single point]"},
      {"smiles": "CCc1cccc(CC)c1NC(=S)NCc1nc2ccccc2[nH]1", "activity change, negative = inhibition": "inactive: 17%"},
      {"smiles": "Cc1ccc(S(=O)(=O)N(Cc2cc3cc4c(cc3[nH]c2=O)OCCO4)CC2CCCO2)cc1", "note": "(centres undefined)", "activity change, negative = inhibition": "inconclusive: 7.39% [inhibitor]"},
      {"smiles": "O=C(NC1CCCC1)c1cc(-c2ccc(F)cc2)on1", "activity change, negative = inhibition": "inactive: -2.85%"},
      {"smiles": "COc1ccc(Nc2ccc(OC)cc2)cc1", "Potency": "inconclusive [inhibitor, partial curve]"},
      {"smiles": "CCOC(=O)c1cc2c(ccn2C)n1Cc1ccc(Cl)cc1", "Potency": "inconclusive [inhibitor, single point]"},
      {"smiles": "COC(CNc1ncnc2c1cnn2C)OC", "activity change, negative = inhibition": "inactive: 10.1%"},
      {"smiles": "COc1cc(CN2CCN(Cc3ccc(C)cc3)CC2)c([N+](=O)[O-])cc1OC", "Potency": "inconclusive [inhibitor, single point]"},
      {"smiles": "Fc1ccccc1CN1CCC(Cc2ccccc2)CC1", "Potency": "inconclusive [inhibitor, single point]"},
      {"smiles": "Cc1cccc(C)c1-n1nnnc1C(c1ccccc1)N1CCN(C/C=C/c2ccccc2)CC1", "note": "(centres undefined)", "Potency": "inconclusive [inhibitor, partial curve]"},
      {"smiles": "COc1ccc(-n2c(O)c(Cc3ccccc3)c(=O)n3nc(-c4ccccc4)c(=O)cc23)cc1", "Potency": "inconclusive [inhibitor, single point]"},
      {"smiles": "O=C(Nc1ccc(N2CCCCC2)cc1)c1ccc2ccccc2n1", "Potency": "inconclusive [inhibitor, partial curve]"},
      {"smiles": "COc1ccc2[nH]c3c(c2c1)CCN1C(=O)N([C@@H](C)C(=O)NCCc2ccc(F)cc2)C(=O)[C@]31C", "Potency": "inconclusive [inhibitor, partial curve]"},
      {"smiles": "COc1cccc(-c2csc(N3CCN(S(=O)(=O)c4ccc(F)cc4)CC3)n2)c1", "activity change, negative = inhibition": "inactive: 24%"},
      {"smiles": "Cc1ccnc(NC(=O)Cc2c(F)cccc2Cl)c1", "Potency": "inconclusive [inhibitor, partial curve]"},
      {"smiles": "CC1(C)CC(=O)C(N=Nc2cccc(F)c2C#N)=C(O)C1", "activity change, negative = inhibition": "inactive: -11.8%"},
      {"smiles": "Cc1ccc(-c2nn(CCC#N)cc2C=C(C#N)C#N)cc1", "activity change, negative = inhibition": "inactive: 4.52%"},
      {"smiles": "COc1ccc(Oc2cc(NN3CCCCC3)c([N+](=O)[O-])cc2[N+](=O)[O-])cc1OC", "Potency": "inconclusive [inhibitor, partial curve]"},
      {"smiles": "O=[N+]([O-])c1cccc(-c2c(-c3ccccc3)ncc3cc(F)ccc23)c1", "Potency": "inconclusive [inhibitor, single point]"},
      {"smiles": "CCOc1ccc(C2N(c3ccc(F)cc3)C(=O)C3CCCN32)cc1", "note": "(centres undefined)", "activity change, negative = inhibition": "inactive: -7.45%"},
      {"smiles": "Cc1ccc(S(=O)(=O)/N=C2\\C=C(Nc3ccc(O)cc3)C(=O)c3ccccc32)cc1", "Potency": "active: 20 µM"},
      {"smiles": "CCc1ccc(OCCCCCn2ccnc2)cc1", "Potency": "inconclusive [inhibitor, single point]"},
      {"smiles": "Cc1cccc(NC(=O)c2cccc3c2C(=O)c2ccccc2-3)c1", "Potency": "inconclusive [inhibitor, partial curve]"},
      {"smiles": "COc1ccc(NC(=O)COC(=O)c2ccc(-n3cnnn3)cc2)cc1Cl", "activity change, negative = inhibition": "inactive: -7.33%"},
      {"smiles": "COc1ccc(C2c3ccc(O)cc3Oc3ncn4nc(-c5ccco5)nc4c32)cc1OC", "note": "(centres undefined)", "activity change, negative = inhibition": "inactive: 32.4%"},
      {"smiles": "COc1ccc(-c2oc3ncn(CCN4CCOCC4)c(=N)c3c2-c2ccc(OC)cc2)cc1", "Potency": "inconclusive [inhibitor, single point]"},
      {"smiles": "Cc1ccc(C2=NC(=O)/C(=C/c3cc(O)c(O)c(Br)c3)S2)cc1", "Potency": "inconclusive [inhibitor, partial curve]"},
      {"smiles": "CCN(CC)c1ccc(CNc2ccc3c(c2)ncn3C(C)(C)C)cc1", "Potency": "active: 28.2 µM"},
      {"smiles": "CN(C)c1ccc(-c2ccnc3c2CC(C)(C(=O)NCc2cccc(Cl)c2)O3)cc1", "note": "(centres undefined)", "Potency": "inconclusive [inhibitor, single point]"},
      {"smiles": "CN(C)C(C)(C)C#CCC(c1ccccc1)c1ccccc1", "Potency": "inconclusive [inhibitor, partial curve]"},
      {"smiles": "COC(=O)[C@@]1(Sc2ccc(C)cc2)CC(=O)N[C@@H]1c1ccco1", "activity change, negative = inhibition": "inactive: -15.1%"},
      {"smiles": "Cn1c(O)c(N=NC(=O)CNC(=O)/C=C/c2ccccc2)c2ccccc21", "Potency": "inconclusive [inhibitor, partial curve]"},
      {"smiles": "Nc1ccc(-c2nc3ccc(N)cc3[nH]2)cc1", "Potency": "inconclusive [inhibitor, partial curve]"},
      {"smiles": "Cc1ccc(NC(=O)C2CCCCC2C(=O)O)cc1Cl", "note": "(centres undefined)", "Potency": "inconclusive [inhibitor, full curve]"},
      {"smiles": "CCN(c1ccc(NC(=O)COC(=O)CCc2nc3ccccc3n2-c2ccccc2)cc1)C(C)C", "Potency": "active: 10 µM"},
      {"smiles": "Cn1cnc(S(=O)(=O)N2CCN(c3cccc(C(F)(F)F)c3)CC2)c1", "activity change, negative = inhibition": "inactive: -9.22%"},
      {"smiles": "Cc1nc(NC(=O)c2ccc3c(c2)OCO3)ccc1Br", "Potency": "inconclusive [inhibitor, partial curve, poor fit]"},
      {"smiles": "COc1cc(S(=O)(=O)NCCCN2CCOCC2)ccc1-n1cnnn1", "Potency": "inconclusive [inhibitor, single point]"},
      {"smiles": "CCN1CC(CN(C)Cc2nc(Cc3ccccc3)no2)CC1=O", "note": "(centres undefined)", "activity change, negative = inhibition": "inactive: -10.1%"},
      {"smiles": "Cc1ccc(SCCC(=O)N(C)CC(=O)Nc2c(C)cccc2C)cc1", "activity change, negative = inhibition": "inactive: 1.75%"},
      {"smiles": "Cc1ccccc1CSCCNC(=O)CSCc1ccc([N+](=O)[O-])cc1", "Potency": "inconclusive [inhibitor, full curve]"},
      {"smiles": "NS(=O)(=O)c1ccc(NC(=S)NNC(=O)c2ccc(Br)o2)cc1", "activity change, negative = inhibition": "inactive: 124%"},
      {"smiles": "CNC(=O)CSc1nnc(COc2ccc(Cl)cc2)n1CCOC", "activity change, negative = inhibition": "inconclusive: 10.9% [inhibitor]"},
      {"smiles": "Cc1ccc(C(=O)N(CC(=O)NC2CCCC2)c2ccc3c(c2)OCCO3)s1", "activity change, negative = inhibition": "inactive: -2.66%"}
    ]}
  ]
}
